Assay results as given in patent US20250066451A1 (SWEDISH ORPHAN BIOVITRUM AB PUBL, published 2025).

Target: T1, human IL-1R-I (human, UniProt P14778 18-332, limits assumed)
T1 construct: bought recombinant protein; also called hIL-1R-I; hIL-1RI
T1 sequence (looked up): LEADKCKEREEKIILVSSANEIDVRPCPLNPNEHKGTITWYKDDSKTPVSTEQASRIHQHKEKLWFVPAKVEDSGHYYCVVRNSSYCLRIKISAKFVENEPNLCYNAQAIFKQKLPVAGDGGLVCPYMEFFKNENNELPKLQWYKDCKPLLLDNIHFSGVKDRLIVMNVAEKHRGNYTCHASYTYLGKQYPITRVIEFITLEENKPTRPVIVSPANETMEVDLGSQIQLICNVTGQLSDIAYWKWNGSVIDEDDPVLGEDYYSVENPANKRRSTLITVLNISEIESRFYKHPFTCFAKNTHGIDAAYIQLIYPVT
Test: SPR screening; Z-ABD captured on anti-ABD, 100 nM hIL-1R-I injected

Kd [nM]	Binder
2.9	Z18887 (Z-ABD) (designed binder) AQHDEALEVDAKYAKEVEVIQMEIFRLPNLTRRQYTAFIRKLLDDPSQSSELLSEAKKLNDSQAPKVDYVLAEAKVLANRELDKYGVSDYYKNLINNAKTVEGVKALIDEILAALPYVPG
2.6	Z18888 (Z-ABD) (designed binder) AQHDEALEVDAKYAKEVEAIQMEIFHLPNLTRKQYTAFIRKLLDDPSQSSELLSEAKKLNDSQAPKVDYVLAEAKVLANRELDKYGVSDYYKNLINNAKTVEGVKALIDEILAALPYVPG
3.4	Z18889 (Z-ABD) (designed binder) AQHDEALEVDAKYAKEVEEVQMEIFRLPNLTRRQYTAFIRKLLDDPSQSSELLSEAKKLNDSQAPKVDYVLAEAKVLANRELDKYGVSDYYKNLINNAKTVEGVKALIDEILAALPYVPG
3.1	Z18890 (Z-ABD) (designed binder) AQHDEALEVDAKYAKELEKVQMEIFGLPNLTRRQYTAFIRKLLDDPSQSSELLSEAKKLNDSQAPKVDYVLAEAKVLANRELDKYGVSDYYKNLINNAKTVEGVKALIDEILAALPYVPG
2.1	Z18893 (Z-ABD) (designed binder) AQHDEALEVDAKYAKEIEEIQMEIFGLPNLTRKQYTAFIRKLLDDPSQSSELLSEAKKLNDSQAPKVDYVLAEAKVLANRELDKYGVSDYYKNLINNAKTVEGVKALIDEILAALPYVPG
2.5	Z18894 (Z-ABD) (designed binder) AQHDEALEVDAKYAKEVEEIQMEIFDLPNLTRRQYTAFIRKLLDDPSQSSELLSEAKKLNDSQAPKVDYVLAEAKVLANRELDKYGVSDYYKNLINNAKTVEGVKALIDEILAALPYVPG
2.6	Z18895 (Z-ABD) (designed binder) AQHDEALEVDAKYAKEIEAIQMEIFYLPNLTRRQYTAFIRKLLDDPSQSSELLSEAKKLNDSQAPKVDYVLAEAKVLANRELDKYGVSDYYKNLINNAKTVEGVKALIDEILAALPYVPG
3.5	Z18896 (Z-ABD) (designed binder) AQHDEALEVDAKYAKETEAIQMEIFALPNLTRRQYTAFIRKLLDDPSQSSELLSEAKKLNDSQAPKVDYVLAEAKVLANRELDKYGVSDYYKNLINNAKTVEGVKALIDEILAALPYVPG
2.5	Z18898 (Z-ABD) (designed binder) AQHDEALEVDAKYAKELEAIQMEIFYLPNLTRRQYVAFIRKLLDDPSQSSELLSEAKKLNDSQAPKVDYVLAEAKVLANRELDKYGVSDYYKNLINNAKTVEGVKALIDEILAALPYVPG
3.4	Z18904 (Z-ABD) (designed binder) AQHDEALEVDAKYAKEVEEIQLEIFALPNLTRKQYTAFIRKLLDDPSQSSELLSEAKKLNDSQAPKVDYVLAEAKVLANRELDKYGVSDYYKNLINNAKTVEGVKALIDEILAALPYVPG
3.6	Z18908 (Z-ABD) (designed binder) AQHDEALEVDAKYAKEIEEIQLEIFALPNLTRKQYTAFIRKLLDDPSQSSELLSEAKKLNDSQAPKVDYVLAEAKVLANRELDKYGVSDYYKNLINNAKTVEGVKALIDEILAALPYVPG
2.7	Z18909 (Z-ABD) (designed binder) AQHDEALEVDAKYAKEIEEIQMEIFFLPNLTRRQYTAFIRKLLDDPSQSSELLSEAKKLNDSQAPKVDYVLAEAKVLANRELDKYGVSDYYKNLINNAKTVEGVKALIDEILAALPYVPG
3.1	Z18910 (Z-ABD) (designed binder) AQHDEALEVDAKYAKEIEAIQMEIFRLPNLTRKQYTAFIRKLLDDPSQSSELLSEAKKLNDSQAPKVDYVLAEAKVLANRELDKYGVSDYYKNLINNAKTVEGVKALIDEILAALPYVPG
2.8	Z18911 (Z-ABD) (designed binder) AQHDEALEVDAKYAKEVEAIQMEIFALPNLTRKQYTAFIRKLLDDPSQSSELLSEAKKLNDSQAPKVDYVLAEAKVLANRELDKYGVSDYYKNLINNAKTVEGVKALIDEILAALPYVPG
3.6	Z18912 (Z-ABD) (designed binder) AQHDEALEVDAKYAKETEEIQMEIFHLPNLTRKQYTAFIRKLLDDPSQSSELLSEAKKLNDSQAPKVDYVLAEAKVLANRELDKYGVSDYYKNLINNAKTVEGVKALIDEILAALPYVPG
4.1	Z18916 (Z-ABD) (designed binder) AQHDEALEVDAKYAKEIEEIQLEIFHLPNLTRKQYTAFIRKLLDDPSQSSELLSEAKKLNDSQAPKVDYVLAEAKVLANRELDKYGVSDYYKNLINNAKTVEGVKALIDEILAALPYVPG
7.1	Z18917 (Z-ABD) (designed binder) AQHDEALEVDAKYAKEIEEIQFEIYDLPNLTRKQYTAFIRKLFDDPSQSSELLSEAKKLNDSQAPKVDYVLAEAKVLANRELDKYGVSDYYKNLINNAKTVEGVKALIDEILAALPYVPG

Kd [nM]	Binder
2.8	Z18919 (Z-ABD) (designed binder) AQHDEALEVDAKYAKEVEEIQMEIFSLPNLTRKQYTAFIRKLLDDPSQSSELLSEAKKLNDSQAPKVDYVLAEAKVLANRELDKYGVSDYYKNLINNAKTVEGVKALIDEILAALPYVPG
3.2	Z18920 (Z-ABD) (designed binder) AQHDEALEVDAKYAKETEEIQMEIFRLPNLTRRQYTAFIRKLLDDPSQSSELLSEAKKLNDSQAPKVDYVLAEAKVLANRELDKYGVSDYYKNLINNAKTVEGVKALIDEILAALPYVPG
4.9	Z18922 (Z-ABD) (designed binder) AQHDEALEVDAKYAKEIEEIQLEIFRLPNLTRKQYTAFIRKLLDDPSQSSELLSEAKKLNDSQAPKVDYVLAEAKVLANRELDKYGVSDYYKNLINNAKTVEGVKALIDEILAALPYVPG
9	Z18923 (Z-ABD) (designed binder) AQHDEALEVDAKYAKEIEEIQQEIFHLPNLTRRQYTAFIRKLLDDPSQSSELLSEAKKLNDSQAPKVDYVLAEAKVLANRELDKYGVSDYYKNLINNAKTVEGVKALIDEILAALPYVPG
11	Z18925 (Z-ABD) (designed binder) AQHDEALEVDAKYAKETEDIQQEIFQLPNLTRRQYTAFIRKLLDDPSQSSELLSEAKKLNDSQAPKVDYVLAEAKVLANRELDKYGVSDYYKNLINNAKTVEGVKALIDEILAALPYVPG
3.4	Z18927 (Z-ABD) (designed binder) AQHDEALEVDAKYAKEIEEIQMEIFALPNLTRKQYTAFIRKLLDDPSQSSELLSEAKKLNDSQAPKVDYVLAEAKVLANRELDKYGVSDYYKNLINNAKTVEGVKALIDEILAALPYVPG
4.5	Z18938 (Z-ABD) (designed binder) AQHDEALEVDAKYAKEIEQIQMEIFALPNLTRKQYTAFIRKLLDDPSQSSELLSEAKKLNDSQAPKVDYVLAEAKVLANRELDKYGVSDYYKNLINNAKTVEGVKALIDEILAALPYVPG
3.3	Z18941 (Z-ABD) (designed binder) AQHDEALEVDAKYAKELEAVQMEIFYLPNLTRRQYTAFIRKLLDDPSQSSELLSEAKKLNDSQAPKVDYVLAEAKVLANRELDKYGVSDYYKNLINNAKTVEGVKALIDEILAALPYVPG
15	Z18942 (Z-ABD) (designed binder) AQHDEALEVDAKYAKEVETIQHEIFRLPNLTRKQYTAFIRKLFDDPSQSSELLSEAKKLNDSQAPKVDYVLAEAKVLANRELDKYGVSDYYKNLINNAKTVEGVKALIDEILAALPYVPG
4.3	Z18948 (Z-ABD) (designed binder) AQHDEALEVDAKYAKEIEAIQMEIFYLPNLTRKQYTAFIRKLLDDPSQSSELLSEAKKLNDSQAPKVDYVLAEAKVLANRELDKYGVSDYYKNLINNAKTVEGVKALIDEILAALPYVPG
3	Z18952 (Z-ABD) (designed binder) AQHDEALEVDAKYAKEVEQIQMEIFYLPNLTRRQYTAFIRKLLDDPSQSSELLSEAKKLNDSQAPKVDYVLAEAKVLANRELDKYGVSDYYKNLINNAKTVEGVKALIDEILAALPYVPG
14	Z18956 (Z-ABD) (designed binder) AQHDEALEVDAKYAKEIEAVQIEIFRLPNLTRKQYTAFIRKLLDDPSQSSELLSEAKKLNDSQAPKVDYVLAEAKVLANRELDKYGVSDYYKNLINNAKTVEGVKALIDEILAALPYVPG
2.8	Z18958 (Z-ABD) (designed binder) AQHDEALEVDAKYAKETEEIQMEIFSLPNLTRRQYTAFIRKLLDDPSQSSELLSEAKKLNDSQAPKVDYVLAEAKVLANRELDKYGVSDYYKNLINNAKTVEGVKALIDEILAALPYVPG
2.9	Z18959 (Z-ABD) (designed binder) AQHDEALEVDAKYAKEIEEVQMEIFGLPNLTRRQYTAFIRKLLDDPSQSSELLSEAKKLNDSQAPKVDYVLAEAKVLANRELDKYGVSDYYKNLINNAKTVEGVKALIDEILAALPYVPG
2.9	Z18966 (Z-ABD) (designed binder) AQHDEALEVDAKYAKETEEVQMEIFRLPNLTRKQYTAFIRKLLDDPSQSSELLSEAKKLNDSQAPKVDYVLAEAKVLANRELDKYGVSDYYKNLINNAKTVEGVKALIDEILAALPYVPG
3.2	Z18967 (Z-ABD) (designed binder) AQHDEALEVDAKYAKEIEVVQMEIFHLPNLTRKQYTAFIRKLLDDPSQSSELLSEAKKLNDSQAPKVDYVLAEAKVLANRELDKYGVSDYYKNLINNAKTVEGVKALIDEILAALPYVPG
